In publication PMC10668032:
The other results are listed elsewhere or left out. At the low end of the ranking the order means little.

Each sequence was assayed against SIX1-Q177R homeodomain (UniProt Q15475) (assay: universal protein binding microarray). Conditions: Universal all-10-mer PBM (8x60K, AMADID 030236), 300 nM GST-tagged protein, Alexa Fluor 488 anti-GST; buffer, salt, pH and temperature not stated; high values mean tight binding; most listed sequences are background and not binding sites; double strand, one strand shown.

Row | Sequence | binding signal [E-score]
1 | AATGGCCC | -0.276
2 | TGAGAACA | 0.0348
3 | ATATATAT | -0.145
4 | CGGGGCCA | -0.0178
5 | CCACGCCG | -0.0403
6 | CACTATAC | 0.261
7 | ACATCCGT | -0.0748
8 | ACAAGTCA | -0.233
9 | AATAGTCT | -0.254
10 | GGGTGTGA | 0.429
11 | ATGGCTTG | -0.0562
12 | AGGTGAAT | -0.033
13 | ACGCTATG | 0.0111
14 | ATGGAACA | 0.0415
15 | ACGATAGG | 0.0593
16 | ATTCATTA | -0.0362
17 | GTACATTA | -0.00548
18 | TCTCATCA | -0.0864
19 | CATCTTTC | 0.0146
20 | CGTTCATA | -0.0546
21 | ACTAATAA | -0.198
22 | ACGCACCA | 0.134
23 | CATTGGGA | -0.21
24 | ATTCAGGC | -0.243
25 | AAATTCCC | -0.156

Row | Sequence | binding signal [E-score]
26 | GCTGAAGA | -0.312
27 | CCGGCTCA | 0.0414
28 | AGACGTCC | -0.192
29 | GCCTTCAC | -0.119
30 | AGATATGG | -0.113
31 | GTCTGATA | 0.0761
32 | AGGTGATC | -0.0504
33 | ACCGACCT | 0.0331
34 | TACTTGGA | -0.0133
35 | GACCAGGA | -0.00609
36 | AGCGCGAT | -0.0565
37 | ACAAAGGG | -0.0167
38 | ACACCGGA | 0.476
39 | AAAAGACC | -0.205
40 | AAGATGCC | -0.145
41 | CAACATGC | -0.303
42 | CGAGTGCA | 0.129
43 | GGACGGCA | -0.204
44 | TCTGTCAA | -0.231
45 | AGTTCACC | 0.0502
46 | AGAGTGGG | -0.0117
47 | GCGATCGC | -0.0966
48 | CATATAAA | -0.2
49 | CTGCTCAA | -0.097
50 | ACTTGCAT | -0.128

Row | Sequence | binding signal [E-score]
51 | CACCCTCG | 0.349
52 | AAAATTCG | 0.00079
53 | GTCGCGTA | 0.0906
54 | GGGTTGTA | 0.169
55 | GTCTGTTA | -0.0735
56 | GACCACTC | -0.157
57 | ACTAAACT | -0.263
58 | CTTTCTTA | -0.153
59 | GGACCGAA | -0.205
60 | GCATCCAA | -0.172
61 | ACCTCTCG | 0.0171
62 | GTTGAAGA | -0.0577
63 | CGACGTTC | -0.262
64 | CAAATGAA | -0.158
65 | AATCTAAG | -0.18
66 | AACTCAGT | -0.0907
67 | CAGCTACA | 0.191
68 | TAATCCGA | -0.0462
69 | TCGTGTAA | 0.434
70 | AGACATAT | -0.246
71 | TACAATGA | 0.114
72 | AGGTCCAA | -0.128
73 | AATGCCAC | -0.0469
74 | CCGGGCGC | -0.105
75 | TGTAAGAA | 0.294

Row | Sequence | binding signal [E-score]
76 | ACGATTTG | -0.0386
77 | AAGTACTC | -0.0367
78 | ATAATTTC | -0.135
79 | GTATAATA | -0.00724
80 | CCTTTCGC | -0.219
81 | GAAGCGTC | -0.0106
82 | ACGGTGTG | 0.367
83 | CCGGATGA | -0.000585
84 | AATAGGCT | -0.0795
85 | CTAAAGGA | -0.0636
86 | ACTTAATA | -0.0802
87 | CATAGGTC | -0.183
88 | ATCACGTA | 0.0973
89 | GAGGACTC | -0.0825
90 | CAACGGTA | -0.021
91 | GCGGTTTA | -0.0362
92 | ACATAGAG | -0.0519
93 | CTTCATGC | -0.178
94 | AACTGGGA | 0.0519
95 | AGGCCCAA | -0.311
96 | ATGCGAAT | -0.329
97 | CAATGAGC | -0.0904
98 | ATGCAGTG | 0.232
99 | CACCGCGG | 0.351
100 | CACCCAGG | 0.284

Row | Sequence | binding signal [E-score]
101 | CGCGATTC | 0.016
102 | GAGGATAA | 0.0709
103 | AGAGTGAC | -0.0875
104 | ATAGTTCC | -0.232
105 | GCTGTCGA | -0.332
106 | CTGGACCA | -0.154
107 | AAAATGAC | -0.0334
108 | AGCCTCCT | -0.276
109 | ACAGAACG | -0.0743
110 | ACCCGAGC | 0.146
111 | ACACAGCG | 0.196
112 | ACTCTGCG | 0.0339
113 | CACCAATG | 0.222
114 | ACACTATA | 0.322
115 | TAGGCCTA | -0.144
116 | CTTTTATA | -0.238
117 | ATCAGGTG | 0.224
118 | AGACTAGG | -0.218
119 | CCGTTATA | 0.101
120 | CTAAGGAG | -0.0501
121 | CCGTGCAC | 0.198
122 | CAAAGCAA | 0.0161
123 | CATGGGAG | -0.0641
124 | TTCCCCAA | -0.0193
125 | CGAATCGA | -0.0345

Row | Sequence | binding signal [E-score]
126 | AAGTCCTA | -0.214
127 | AAAGTTGT | -0.197
128 | CGCCGCCA | -0.0907
129 | CCGGAGTA | 0.227
130 | GGAGAGCC | -0.0878
131 | CGCGGACA | 0.0585
132 | GTTGGTTA | 0.129
133 | AAGGGGAC | -0.181
134 | CGCGCCAG | -0.0751
135 | CATCCGCC | -0.0303
136 | ACAGCAAG | -0.156
137 | ATCTCTTA | -0.0975
138 | AAAAGCTC | -0.276
139 | ATGGTTGG | -0.0836
140 | CCGTAACG | 0.0194
141 | ATTGCCCA | -0.0279
142 | CGGTACAA | -0.102
143 | GTTGTCAA | -0.0409
144 | CAAAGATA | -0.0257
145 | CGCCGAGC | -0.25
146 | AATTGACC | 0.112
147 | AACCGGGC | -0.186
148 | CAAACAAC | -0.00032
149 | CATAGGCC | -0.122
150 | GAGCCCCC | -0.166

Row | Sequence | binding signal [E-score]
151 | CACATGCA | 0.103
152 | ATGCTTAA | -0.0996
153 | ATGATATA | -0.243
154 | GCTAGCCA | -0.238
155 | ATGTTGGA | 0.00122
156 | CCGTGTCG | 0.441
157 | CTTCTTGA | -0.155
158 | AAATCCTG | -0.258
159 | AGACCCAG | -0.0324
160 | CAGGTCGG | -0.00688
161 | CATAGATA | -0.244
162 | CATAGGCA | -0.143
163 | CCCTGAGC | 0.0966
164 | CCGTCCAA | -0.154
165 | CAGAAGAG | -0.176
166 | CAGCTTAG | -0.13
167 | AACGCTGT | -0.0876
168 | AAGAAAAT | -0.165
169 | CACATTGC | 0.0902
170 | AAAGTTTG | -0.27
171 | ACCGTGCC | 0.179
172 | AGCGGACG | -0.237
